# Assay results as given in PMC11241627, “Cysteine Oxidation in Human Galectin-1 Occurs Sequentially via a Folded Intermediate to a Fully Oxidized Unfolded Form” (International Journal of Molecular Sciences, 2024).
# B1: human galectin-1 (Gal-1), native, fully reduced (natural protein)
# chain: not shown
# notes: galectin-1 (Gal-1), human; six cysteines printed as C2, C16, C42, C60, C88, C130; Samples for HSQC were uniformly 15N- or 13C/15N-labelled; also called native Gal-1; N state
# Biological target: the molecule itself
# Experiment: PFG NMR diffusion; pulsed field gradient NMR diffusion coefficients of Gal-1 during CuSO4 oxidation; 30 °C; ~25 μM Gal-1 in 20 mM potassium phosphate buffer pH 7.0; self-association (dimer)
protein,measurement,value
B1,stoichiometry N,2
